Among all 310,000 compounds or so, about 2,200 (0.71%) showed an effect of 50% or more. Effects have a minus sign here. The list shows a part of the results.
Target: human ether-à-go-go-related gene (hERG) potassium channel (human, UniProt Q12809)
Assay: primary screen, population patch clamp on CHO cells stably expressing hERG

Sequence of human ether-à-go-go-related gene (hERG) potassium channel (Q12809 whole entry, looked up): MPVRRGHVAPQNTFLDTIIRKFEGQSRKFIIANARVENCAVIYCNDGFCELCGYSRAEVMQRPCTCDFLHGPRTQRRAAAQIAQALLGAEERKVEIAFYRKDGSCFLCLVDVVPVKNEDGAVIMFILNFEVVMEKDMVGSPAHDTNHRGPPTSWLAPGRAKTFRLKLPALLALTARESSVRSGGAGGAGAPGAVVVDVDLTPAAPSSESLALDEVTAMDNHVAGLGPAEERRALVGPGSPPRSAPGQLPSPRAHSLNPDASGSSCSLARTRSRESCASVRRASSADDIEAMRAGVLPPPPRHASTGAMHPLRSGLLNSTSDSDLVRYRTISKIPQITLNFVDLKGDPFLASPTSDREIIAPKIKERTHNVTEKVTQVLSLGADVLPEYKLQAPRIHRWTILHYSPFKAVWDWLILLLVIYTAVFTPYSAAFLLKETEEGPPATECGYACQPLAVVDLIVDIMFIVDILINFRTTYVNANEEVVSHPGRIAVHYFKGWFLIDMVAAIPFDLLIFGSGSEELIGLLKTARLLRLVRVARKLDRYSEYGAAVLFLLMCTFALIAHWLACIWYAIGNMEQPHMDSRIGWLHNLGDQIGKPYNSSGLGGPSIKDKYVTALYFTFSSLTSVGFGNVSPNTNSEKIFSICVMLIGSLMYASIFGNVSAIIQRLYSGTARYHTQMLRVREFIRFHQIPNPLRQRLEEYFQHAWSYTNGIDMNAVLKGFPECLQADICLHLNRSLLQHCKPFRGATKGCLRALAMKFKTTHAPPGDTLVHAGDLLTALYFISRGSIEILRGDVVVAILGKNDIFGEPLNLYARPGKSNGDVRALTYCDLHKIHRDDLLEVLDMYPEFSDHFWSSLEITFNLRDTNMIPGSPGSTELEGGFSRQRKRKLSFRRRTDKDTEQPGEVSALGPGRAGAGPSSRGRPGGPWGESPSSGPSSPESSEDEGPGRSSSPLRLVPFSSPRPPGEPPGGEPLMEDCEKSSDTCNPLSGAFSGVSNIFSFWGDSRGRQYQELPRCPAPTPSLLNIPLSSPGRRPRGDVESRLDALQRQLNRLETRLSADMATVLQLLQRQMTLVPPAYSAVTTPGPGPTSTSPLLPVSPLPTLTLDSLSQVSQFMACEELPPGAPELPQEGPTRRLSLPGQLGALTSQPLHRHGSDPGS

Row | Compound | hERG current change (%, negative = inhibition) at 1uM [%]
1 | CC1Sc2ccc(S(=O)(=O)CCC(=O)N3CCN(c4cccc(Cl)c4)CC3)cc2NC1=O (stereo not drawn) | 11.2
2 | CCOC(=O)CSc1nc(N)c(C#N)cc1C#N | -4.41
3 | CNC(=O)CN(C)S(=O)(=O)c1ccc(F)cc1 | -1.73
4 | COc1ccc(NC(=O)c2sc3nc(Cc4ccccc4)cc(C(F)(F)F)c3c2N)cc1OC | 8.31
5 | C/C(=N\Nc1cc(C)nc(NCc2ccccc2)n1)c1ccc([N+](=O)[O-])cc1 | 17.8
6 | COC(=O)C1C(O)=C(C=Nc2ccccc2)C(=O)CC1(C)C (stereo not drawn) | 8.18
7 | CC(Oc1ccccc1)C(=O)N(CCC1=CCCCC1)c1c(N)n(Cc2ccccc2)c(=O)[nH]c1=O (stereo not drawn) | 7.41
8 | COc1ccc(COC(=O)c2ccc(Cl)c(S(=O)(=O)N3CC(C)OC(C)C3)c2)cc1 (stereo not drawn) | -0.118
9 | O=C(COc1ccc(C(=S)N2CCCC2)cc1)Nc1ccc(F)cc1 | 4.37
10 | CCOC(=O)CC1(NC(=O)c2cc(COc3ccc(F)c(F)c3)on2)CCCCC1 | 7.08
11 | CN(c1ccccc1)c1ccc(/C=c2\s/c(=C(/C#N)C(=O)C(C)(C)C)n(Cc3ccco3)c2=O)cc1 | 8.84
12 | O=[N+]([O-])c1ccccc1CNCCCCCO | -1.63
13 | CC12CCC(c3c(CO)nn(-c4ccccc4)c31)C2(C)C (stereo not drawn) | -3.9
14 | CC(C(=O)Nc1ccccn1)N1C(=O)C2C3C=CC(C3)C2C1=O (stereo not drawn) | 10.9
15 | O=c1c2ccccc2nc(/C=C/c2ccc(Br)cc2)n1CCO | 9.05
16 | COc1ccc2nc(SCc3cccc(C)c3)nc(C)c2c1 | -7.86
17 | CC(C)(C)N(Cc1ccccc1)C(=O)COC(=O)CSc1ccc([N+](=O)[O-])cc1 | 14.9
18 | COc1cc(S(N)(=O)=O)c(OC)cc1N | 23.6
19 | CCCn1c(NCCO)nc2ccccc21 | 9.44
20 | O=C(NCc1ccccc1Cl)C1CCCN1C(=O)NCc1ccccc1 (stereo not drawn) | 14.7
21 | COn1c(-n2nc(C)cc2C)nc2ccccc2c1=O | 15.2
22 | O=C(c1cc(Cl)nc2ccccc12)N(Cc1nnc(-c2ccc(Cl)cc2)o1)C1CC1 | -13.4
23 | O=C(/C=C/c1ccc2c(c1)OCO2)NCc1cn2cc(Cl)ccc2n1 | 10.9
24 | O=C(CSc1nnc(CNC(=O)c2c(F)cccc2Cl)o1)NCCc1ccccc1 | 3.91

From publication PMC4336329 (PLoS ONE, 2015)
